In the antibiotic and cytotoxicity screens of Wong et al. (2023):
Some of the results follow.

Tested on: S. aureus RN4220
Test: growth inhibition call (relative growth <= 0.2)
Conditions: 50 µM

| SMILES | growth inhibition call |
| --- | --- |
| CCOC(=O)[C@H]1[C@@H]2C=C[C@]3(O2)[C@H](C(=O)NCc2ccccc2)N(Cc2cc(OC)cc(OC)c2)C(=O)[C@@H]13 | inactive |
| C[C@@H]1CN([C@H](C)CO)C(=O)c2cc(NS(=O)(=O)c3ccc(Cl)cc3)ccc2O[C@H]1CN(C)S(=O)(=O)c1cn(C)cn1 | inactive |
| C[C@H](CO)N1C[C@H](C)[C@@H](CN(C)Cc2ccc(Oc3ccccc3)cc2)Oc2c(NC(=O)Cc3ccccc3)cccc2C1=O | inactive |
| Cc1cn2c(=O)c(C(=O)O)cnc2s1 | inactive |
| O=C(C[C@H]1CC[C@H]2[C@@H](COC[C@@H](O)CN2S(=O)(=O)c2cccc(F)c2)O1)NCc1ccncn1 | inactive |
| Cc1noc(C)c1NC(=O)N(C)C[C@@H]1Oc2ccc(NS(=O)(=O)c3ccccc3)cc2CC(=O)N([C@H](C)CO)C[C@H]1C | inactive |
| Cc1ccc(-c2csc(-c3ccc(C(F)(F)F)cc3)n2)cc1 | inactive |
| C[C@H](CO)N1C[C@H](C)[C@H](CN(C)C(=O)c2ccccc2)OCCCC[C@H](C)Oc2ccc(NC(=O)Cc3ccccc3)cc2C1=O | inactive |
| CC(C)NC(=O)N(C)C[C@@H]1Oc2ccc(NC(=O)CCC(F)(F)F)cc2CC(=O)N([C@H](C)CO)C[C@H]1C | inactive |
| Cc1cc(C(=O)Nc2cccc3c2O[C@H](CN(C)C(=O)Nc2ccc4c(c2)OCO4)[C@@H](C)CN([C@H](C)CO)C3=O)n(C)n1 | inactive |
| C[C@@H]1CN([C@H](C)CO)C(=O)c2cc(NS(=O)(=O)c3cccs3)ccc2O[C@@H](C)CCCCO[C@@H]1CN(C)Cc1ccc(C(=O)O)cc1 | inactive |
| COc1cc(N2CCO[C@]3(COCCN(S(C)(=O)=O)C3)C2)ncn1 | inactive |
| C[C@@H]1CCCCO[C@H](CN(C)C(=O)c2ccccc2)[C@H](C)CN([C@@H](C)CO)C(=O)c2cc(NC(=O)Nc3ccc(C(F)(F)F)cc3)ccc2O1 | inactive |
| C[C@@H]1CN([C@H](C)CO)C(=O)CCCn2cc(nn2)CO[C@H]1CN(C)C(=O)c1cc(-c2ccccc2)on1 | inactive |
| C[C@H](CO)N1C[C@H](C)[C@@H](CN(C)C(=O)Nc2ccccc2)OCCCC[C@H](C)Oc2ccc(NS(=O)(=O)c3cccs3)cc2C1=O | inactive |
| CCc1cn(C2OCC(O)C2CO)c(=O)nc1O (centres undefined) | inactive |
| Cc1nnc(SCC2=C(C(=O)[O-])N3C(=O)C(NC(=O)Cn4cnnn4)C3SC2)s1.[Na+] (centres undefined) | active |
| C[C@H](CO)N1C[C@H](C)[C@H](CN(C)S(=O)(=O)c2ccccc2F)Oc2cc(C#Cc3cccc(F)c3)ccc2S1(=O)=O | inactive |
| Cc1noc(C)c1NC(=O)N(C)C[C@H]1Oc2ccc(NS(C)(=O)=O)cc2CC(=O)N([C@@H](C)CO)C[C@@H]1C | inactive |
| C[C@H]1CN([C@@H](C)CO)C(=O)c2cccc(NC(=O)Nc3cccc4ccccc34)c2O[C@H]1CN(C)C(=O)Nc1ccccc1 | inactive |
| Cc1ccc(S(=O)(=O)Nc2ccc3c(c2)C(=O)N([C@@H](C)CO)C[C@@H](C)[C@@H](CN(C)Cc2ccc(-c4ccccc4)cc2)O3)cc1 | inactive |
| C[C@@H]1CN([C@H](C)CO)C(=O)Cc2cc(NC(=O)Nc3ccc4c(c3)OCO4)ccc2O[C@H]1CN(C)S(C)(=O)=O | inactive |
| C=CCOC(=O)O[C@H]1[C@@H](OC)O[C@H](COC(=O)NCCCCCC(=O)NO)[C@H]2OC(=O)[C@@H](Cc3cccc(Br)c3)C/C=C/C[C@H](Cc3ccccc3)C(=O)O[C@H]12 | inactive |
| NNC(=O)C1[C@H]2CCCC[C@@H]12 (some centres undefined) | inactive |
| N#C[C@@H]1N[C@H](CO)[C@@H]1c1ccccc1 | inactive |
| COc1cc2nc(N3CCN(C(=O)c4ccco4)CC3)nc(N)c2cc1OC.Cl | inactive |
| COc1cc2ccccc2cc1C(=O)OCC(=O)N(CC(C)C)c1c(N)n(Cc2ccccc2)c(=O)[nH]c1=O | inactive |
| COc1ccc(CN(C)C[C@@H]2Oc3ccc(NS(=O)(=O)c4c(C)noc4C)cc3CC(=O)N([C@H](C)CO)C[C@H]2C)cc1 | inactive |
| CNC(=O)C[C@H]1CC[C@H]2[C@@H](COC[C@@H](O)CN2C(=O)Nc2cccc(OC)c2)O1 | inactive |
